According to PubChem BioAssay AID651820 (National Center for Advancing Translational Sciences (NCATS), 2012):
Out of some 340,000 compounds screened, about 12,000 (3.5%) were called active. Inconclusive results, whose numbers are uncertain, are shown with a selection of clear calls. The call rests on the fitted dose curve; in most records, active means well fitted inhibition curve with a large enough effect; inconclusive means small, poorly fitted or top-dose-only effect, or another doubt; inactive means no such curve, though single readings can be large or run the other way. Potencies of inconclusive entries are left out as doubtful fits.

Test: qHTS Assay for Inhibitors of Hepatitis C Virus (HCV)
Conditions: Huh7.5.1 HCVcc-Cre (HCVcc is cell-culture hepatitis C virus) infection, luciferase reporter, 44 h; series mostly up to 41.8 µM
Procedure, shortened: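 1,000 cells/well; 4 h culture; + compound; + HCVcc-Cre (~0.5 moi); 44 h; luciferase substrate, RT 15 min; read 15 sec.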
Potency means the concentration at half of the fitted maximal effect; tags describe the fitted curve by direction and shape.

Structure (SMILES)	Potency
CCOc1ccccc1N=C1SCC(C)N1C(=O)C1CCN(c2ncnc3sc(C)c(C)c23)CC1 (stereo unspecified)	inconclusive [inhibitor, single point]
COc1ccccc1-n1c(SCC(=O)Nc2cc(C)on2)nc2c([nH]c3ccccc32)c1=O	inconclusive [inhibitor, single point]
COc1ccc(NS(=O)(=O)c2cn(C)c(=O)n(C)c2=O)cc1	inactive
O=C(NCCC(=O)N1CCN(Cc2c(F)cccc2Cl)CC1)c1ccc(Cl)cc1	inconclusive [inhibitor, single point]
Cc1ccc(S(=O)(=O)Nc2cc(Cl)c(O)cc2C)cc1	inconclusive [inhibitor, partial curve]
COc1ccc([C@@H](C)NC(=O)c2ccc3oc(C(C)C)nc3c2)cc1	inconclusive [inhibitor, full curve, poor fit]
Cc1ncc(CO)c2c1Oc1nc(-c3ccccc3F)nc(SCC(=O)N(C)c3ccccc3)c1C2	inconclusive [inhibitor, partial curve]
CC1=NN(c2ccccc2)C(=O)/C1=C\C=C1/N(C)c2ccccc2C1(C)C	inconclusive [inhibitor, partial curve]
COc1cc(CN2CCC(C(=O)NC3CCCC3)CC2)ccc1O	inactive
COc1ccc(OCCN2CCCC2)cc1Nc1nnc(Cl)c(Nc2ccccc2S(C)(=O)=O)n1	inconclusive [inhibitor, full curve]
O=C1c2ccccc2NC(c2ccc(Cl)cc2Cl)N1Cc1ccccc1 (stereo unspecified)	inconclusive [inhibitor, single point]
Cc1ccc(NC(=S)N(CCC(C)C)C(C)c2ccncc2)c(Cl)c1 (stereo unspecified)	inconclusive [inhibitor, partial curve]
CCN(CC)CCn1c2ccccc2c2n[nH]c(=S)nc21	inconclusive [inhibitor, single point]
CN(Cc1ccc(F)cc1)C(=O)c1cccc(S(=O)(=O)N2CCN(c3ccc(F)cc3)CC2)c1	active: 10 µM
COC(=O)c1c(-c2ccccc2)csc1NC(=O)c1c(-c2ccccc2)noc1C	inconclusive [inhibitor, partial curve]
CN=Cc1sc2ccccc2c1O	inactive
CN(CCC#N)C(=O)CSc1ncnc2sc(-c3ccccc3)cc12	inconclusive [inhibitor, partial curve, poor fit]
COc1ccccc1OCCNC(=O)c1cc([N+](=O)[O-])cc([N+](=O)[O-])c1	inactive
N#C/C(=C/c1ccccc1[N+](=O)[O-])c1nc(C2CC2)cs1	inconclusive [inhibitor, single point]
Cc1ccc(-n2nc3c(=O)n(CC(=O)c4ccc(F)cc4)nc(C)c3c2C)cc1	inconclusive [inhibitor, full curve]
CCCCCCCCCCOC(=O)Cn1c(COc2ccccc2)[n+](C)c2ccccc21	inconclusive [inhibitor, single point]
CSc1ccc(C#N)cc1NC(=O)c1ccccc1C	inconclusive [inhibitor, single point]
COc1ccc(Nc2ccc3c(c2)=NC2(CCCCC2)[N+]=3[O-])cc1	active: 5.01 µM
COC(=O)c1cc(OC)c(OC)cc1N	inactive

Structure (SMILES)	Potency
Cc1ccc(NC(=O)CSc2ccccc2)cc1S(=O)(=O)N1CCCCC1	active: 12.6 µM
COc1cccc(C(=O)Nc2ccc(S(=O)(=O)NCc3ccco3)cc2)c1	active: 25.1 µM
O=[N+]([O-])c1cccc(CN2CCC(Cc3ccccc3)CC2)c1	inactive
Cc1cccc(Cl)c1NC(=S)N1CCN(c2ccc([N+](=O)[O-])cn2)CC1	inconclusive [inhibitor, partial curve]
COc1cccc(-c2sc3ccccc3c2-c2ccc(OCCN3CCCC3)cc2)c1	inconclusive [inhibitor, full curve]
COc1cc(C(=O)NCC(c2ccco2)N2CCCC2)ccc1OCc1ccccc1 (stereo unspecified)	inconclusive [inhibitor, partial curve]
COC(=O)CC1(C(=O)OC)Oc2ccc(Br)cc2C(=O)N1c1cccc(Cl)c1Cl (stereo unspecified)	inconclusive [inhibitor, single point]
COc1ccc(/C=C2\Sc3ccc(C(=O)NCC4CCCO4)cc3N(C)C2=O)cc1 (stereo unspecified)	inconclusive [inhibitor, partial curve]
CCOC(=O)C1(CCOc2ccccc2)CCN(Cc2ccc(C(=O)OC)cc2)CC1	inconclusive [inhibitor, single point]
O=C(CN1C(=O)CCC1=O)Nc1nc(-c2ccc(Oc3ccccc3)cc2)cs1	inconclusive [inhibitor, partial curve]
CC(C)(C)NC(=O)C1N(c2cccnc2)C(=O)C2C(C(=O)Nc3ccccc3)C3(C)C=CC21O3 (stereo unspecified)	inconclusive [inhibitor, partial curve]
NC(N)=N/N=C(\N=Nc1ccccc1)c1cccc2cccnc12	inactive
COc1ccc(S(=O)(=O)N2CCN(c3cnccn3)CC2)cc1	inactive
COc1ccc(-c2nc(CS(=O)(=O)CC(=O)NC3CCC(C)CC3)c(C)o2)cc1 (stereo unspecified)	inconclusive [inhibitor, single point]
C=CCNc1cccc(Br)c1	inactive
N#Cc1c(Nc2ccccc2)[n+]([O-])c2ccc(Cl)cc2[n+]1[O-]	active: 2.82 µM
COc1ccc(-c2nc3n(c(=O)c2C#N)CCCS3)cc1	inconclusive [inhibitor, single point]
Cc1cc(C)c(S(=O)(=O)N2CCCCC2CCNC(=O)C(=O)NCC2CCCO2)c(C)c1 (stereo unspecified)	inactive
CCC(=O)Nc1nc(-c2ccc3c(c2)CC(C)N3S(C)(=O)=O)cs1 (stereo unspecified)	inconclusive [inhibitor, single point]
CC1(c2ccccc2)NC(=O)N(CC(=O)Nc2cc(Cl)ccc2N2CCOCC2)C1=O (stereo unspecified)	inactive
CCOC(=O)/C(=C/Nc1ccc(F)c(F)c1)[N+](=O)[O-]	inactive
Cc1cc(O)c(C(C)C)cc1NC(=S)Nc1cc(C(C)C)c(O)cc1C	inconclusive [inhibitor, full curve]
COc1ccc2ccccc2c1CNCCN1CCOCC1	inactive
C=CCn1c(O)c(N=NC(=S)Nc2ccc(OC)c(Cl)c2)c2ccccc21	inconclusive [inhibitor, full curve]

Structure (SMILES)	Potency
CC(C)Cn1cnc2c(SCc3ccccc3F)nc(N)nc21	inconclusive [inhibitor, partial curve]
COc1cc(C(=O)OCC(=O)NCCCc2ccccc2)ccc1OCC(C)C	inactive
Cc1cc(C)n(-c2nc(Nc3ccccc3C(F)(F)F)nc(-n3nc(C)cc3C)n2)n1	active: 5.62 µM
CCOC(=O)N1CCC(NC(=O)c2cc3c(C)nc4ccccc4c3o2)CC1	inconclusive [inhibitor, partial curve]
Cc1cccc(-n2c(SCC(=O)NCc3ccco3)nnc2-c2ccco2)c1	inactive
O=C(NN=C1c2ccccc2-c2ccccc21)c1ccccc1Br	inconclusive [inhibitor, single point]
Cc1nn(-c2c(Cl)cc(Cl)cc2Cl)c(=O)c2ccccc12	inconclusive [inhibitor, single point]
COc1cccc(-c2sc3ccc(OC)cc3c2-c2ccc(OCCN(C)C)cc2)c1	inconclusive [inhibitor, partial curve]
COc1cc(/C=C(/C#N)C(=O)NCCc2c[nH]c3ccccc23)ccc1OCc1ccccc1F	inconclusive [inhibitor, single point]
C=CC[C@]12C=C(OC)C(=O)C(OC)=C1O[C@@H](c1ccc3c(c1)OCO3)[C@H]2C	inconclusive [inhibitor, full curve, poor fit]
CCCN(CC(=O)Nc1ccccc1C)C(=O)CCCc1c[nH]c2ccccc12	inconclusive [inhibitor, single point]
CS(=O)(=O)N1CCN(c2ccccc2NC(=O)C(c2ccccc2)c2ccccc2)CC1	inactive
O=C(Nc1ccccc1C(F)(F)F)NC1CCCCCCC1	inactive
Cc1ccc(NC(=O)COC(=O)c2nn(-c3ccc(Cl)cc3)cc2O)cc1	inactive
Cc1ccc(-c2cc(C(=O)NCC3CCCO3)c3ccccc3n2)cc1C (stereo unspecified)	inactive
CC(C)CN1C2CCCC1CC(NC(=S)NCc1ccco1)C2 (stereo unspecified)	inactive
CCOC(=O)c1ccc(NC(=O)COc2ccc(CNCCO)cc2OCC)cc1	active: 8.91 µM
CCN(CC)S(=O)(=O)c1cccc(NC(=O)c2ccccc2Br)c1	inconclusive [inhibitor, partial curve]
O=C(N/C=C\c1ccccc1)NCc1ccc(Cl)cc1Cl	inconclusive [inhibitor, single point]
CCOc1ccc(NC(=O)c2cc3cc4ccc(OC)cc4nc3o2)cc1	inactive
CCOc1ccccc1N(CC(=O)NC1CCCC1)C(=O)CCCC(=O)Nc1ccccn1	inconclusive [inhibitor, single point]
CCCN(CC(=O)Nc1cccc(Br)c1)CC(=O)Nc1ccc(F)c(F)c1F	inconclusive [inhibitor, partial curve]
O=C(NNC(=O)c1cnccn1)c1ccc(Cl)c(Cl)c1	inconclusive [inhibitor, single point]
